Source: PubChem BioAssay AID1240 (Sanford-Burnham Center for Chemical Genomics, 2008)
Hit rate of the full screen: of about 50,000 compounds, about 800 (1.6%) showed an effect of 50% or more. This is one part of the list.

What follows are compounds tested against Bcl-2-like protein 10 (Homo sapiens) (UniProt Q9HD36) (assay: Phenotype converters, Bcl-B/TR3 peptide binding displacement, primary biochemical FP (AID 1240;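 note: 0% = Bcl-B with tracer peptide and DMSO and 100% = tracer peptide lacking Bcl-B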)). Settings: GST-Bcl-B / FITC-TR3 peptide fluorescence polarization; stronger effect = higher value; compound at 3.75 mg/L.
Sequence of UniProt Q9HD36 (Q9HD36 whole entry, looked up): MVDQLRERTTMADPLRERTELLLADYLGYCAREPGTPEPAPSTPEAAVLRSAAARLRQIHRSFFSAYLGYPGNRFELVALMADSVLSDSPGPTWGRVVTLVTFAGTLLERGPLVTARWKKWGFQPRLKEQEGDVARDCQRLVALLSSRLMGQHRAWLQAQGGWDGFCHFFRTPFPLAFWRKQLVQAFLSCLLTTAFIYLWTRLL

SMILES | displacement
COc1ccc([N+](=O)[O-])cc1NCc1ccc(C(F)(F)F)cc1 | 1%
c1cc(CSc2nc3ccccc3[nH]2)nc(CSc2nc3ccccc3[nH]2)c1 | -10.3%
O=C1/C(=C/c2ccc(Br)c([N+](=O)[O-])c2)SC(=S)N1Cc1ccccc1 | 11.6%
O=C(Nc1ccc2nn(-c3ccc(F)cc3)nc2c1)c1ccccc1I | -28.4%
Cn1c(=O)c(C(=O)Nc2ncccn2)c(O)c2ccccc21 | 6.7%
O=C1/C(=C\c2ccc3c(c2)OCO3)C(c2ccccc2)=NN1c1ccccc1 | 8.9%
O=C(Nc1ccccc1)Nc1nnc(-c2ccc(Cl)cc2Cl)s1 | 5.3%
CCOc1ccc(NC(=O)CC2S/C(=N\N=C\c3ccc(O)c(OC)c3)NC2=O)cc1 (stereo not given) | 9.6%
COC(=O)C1=C(C)NC(=O)NC1c1ccc(C(C)C)cc1 (stereo not given) | 7.2%
Cc1ccc(C)c(NC(=O)C2CC3CCC2C3)c1 (stereo not given) | 4%
O=C(COc1ccc2ccccc2c1)N1CCN(C(=O)c2cccnc2)CC1 | 0.8%
Cc1c(CCNC(=O)NS(=O)(=O)c2ccccc2Cl)c2ccccc2n1Cc1ccccc1 | 12.4%
Cc1ccc(OCCOc2ccc(Cl)cc2/C=c2\sc3nc4ccccc4n3c2=O)cc1 | -26.8%
COc1ccccc1CNC(=O)CN(c1ccc(C)cc1)S(=O)(=O)c1ccc(F)cc1 | 0.1%
O=C(O)CN1C(=O)/C(=C\c2ccc(Cl)c(Cl)c2)SC1=S | 10.4%
COc1ccc(N(CC(=O)Nc2ccc(OC)c(OC)c2)S(C)(=O)=O)cc1Cl | -3.1%
COC(=O)c1c(C)oc2ccc(OC(=O)c3cccc([N+](=O)[O-])c3)cc12 | 5.4%
COc1ccc(OC)c(S(=O)(=O)n2nc(C)cc2C)c1 | -21%
CCN(CC)C(=O)c1ccc(C(=O)c2ccccc2)cc1 | -8.4%
FC(F)(F)c1ccc(C2Nc3cccc4cccc(c34)N2)cc1 | 16.4%
O=C(COc1ccc(Cl)cc1)Nc1ccc2ccccc2c1 | 15.9%
C/C(Cn1nnc([N+](=O)[O-])n1)=N/NC(=O)Cc1ccc(Cl)cc1 | 1.8%

SMILES | displacement
Cc1ccc(Br)cc1S(=O)(=O)N1CCN(c2ccccc2)CC1 | -4.7%
C=CCn1c(NCc2ccc(N(CC)CC)cc2)nc2ccccc21 | 2.3%
O=C(O)c1cccc2c1NC(c1ccccc1Br)C1CC=CC21 (stereo not given) | 132%
C/C(=N\NC(=O)CSc1ncccn1)c1ccc(Cl)cc1 | -5%
CN1CCN(C(=O)CCN2C(=O)S/C(=C/c3ccc(Cl)cc3)C2=O)CC1 | 4.7%
CC1=C(C(=O)OC(C)C)C(c2ccccc2C(F)(F)F)CC(=O)N1 (stereo not given) | -4.4%
CCOC(=O)c1c(CN(C)C)n(C)c2cc(Br)c(O)cc12 | -7.4%
CCOC(=O)C1=C(O)/C(=C/c2ccc(N(C)C)cc2)SC1=Nc1ccc([N+](=O)[O-])cc1 | 15.5%
O=C(COc1ccccc1[N+](=O)[O-])Nc1ccc(-c2nc3ccccc3o2)cc1 | -1.3%
N#C/C(=N/Nc1ccc(Cl)cc1)C(=N)N1CCCCCC1 | -1.7%
Cc1ccc(N=C2NC(=O)/C(=C/c3ccc(O)cc3)S2)cc1C | 9.2%
O=C1/C(=C/c2ccc(I)o2)SC(=S)N1c1ccccc1 | 22.4%
O=C(Nc1ccccc1C(=O)Nc1ccccn1)c1ccc([N+](=O)[O-])cc1 | 45.1%
COc1ccc(CN2CCN(C(=O)c3cccc(F)c3)CC2)c(OC)c1OC | -4.8%
COc1cc2c(cc1OC)C1=CC(=O)C(=O)N1C(C)(C)C2 | 18.4%
Cc1cc(C)nc(SCC(=O)N(c2ccccc2)c2ccccc2)n1 | -6.6%
COc1cc(/C=N\n2nnnc2N)ccc1OCc1ccc(C)cc1 | 11.5%
COc1ccc(N2C(=O)CC(Sc3nc(C)c4ccccc4n3)C2=O)cc1 (stereo not given) | 12.9%
COc1c(Br)cc(Br)cc1/C=N\NC(=O)COc1ccc(C)cc1 | 1.1%
COc1ccc(OCCNC(=O)Nc2cc(F)c(F)cc2Cl)cc1 | 1%
COC(=O)C1=C(C)N(CC(C)C)C(=O)/C1=C\c1cccs1 | 21.7%
CCOC(=O)c1ccc(-c2ccc(/C=C3\C(=O)NC(=O)C(C#N)=C3C)o2)cc1 | -4.6%

SMILES | displacement
Cc1cc(OCCOCCN2CCC(C)CC2)ccc1Cl | 2.1%
Cc1ccc(OCCNC(=O)c2ccccc2F)cc1 | 0.6%
Cc1cccc(N2C(=O)NC(=O)/C(=C/c3cc(Cl)c(O)c(Cl)c3)C2=O)c1 | 4%
O=C(Nc1ccc(I)cc1)C1CC(=O)N(c2ccc(F)cc2)C1 (stereo not given) | 7.1%
Cc1ccc(C2CC(C(F)(F)F)n3ncc(C(N)=O)c3N2)cc1 (stereo not given) | -4.4%
COc1ccccc1C/C(N)=N/OC(=O)c1ccccc1OC | 12.4%
O=c1c2ccccc2nc(Cc2ccccc2)n1-c1cccc2ccccc12 | -1.4%
Cc1cc(C=C2C(=O)N(C)C(=O)N(C)C2=O)c(C)n1-c1ccc([N+](=O)[O-])cc1 | -45.5%
O=C(O)CCCc1sc(/C(=N\O)C(=O)O)cc1[N+](=O)[O-] | -17.1%
Cc1ccn2cc(-c3cccc(NC(=O)c4cc5cc(Br)ccc5oc4=O)c3)nc2c1 | 14.3%
CCOc1cc(OCC)cc(C(=O)Nc2ccc3oc(-c4ccccc4F)nc3c2)c1 | 10.2%
CC1=C(C(=O)Nc2ccc(C)cc2)C(c2ccc(O)cc2)NC(=S)N1 (stereo not given) | 5.1%
NC(=O)c1[nH]cnc1C(=O)c1ccccc1 | 15%
O=C(Nc1ccc(S(=O)(=O)N2CCCCCC2)cc1)c1ccco1 | 0.9%
CC1=C(C(=O)Nc2ccccc2Cl)C(c2ccccc2F)NC(=O)N1 (stereo not given) | -13.4%
O=C(COc1ccc(Cl)cc1Cl)NCc1ccncc1 | -2.7%
c1ccc(-c2nc(N3CCOCC3)nc3ccccc23)cc1 | -1.9%
Cc1cc(C)c(C#N)c(SCC(=O)N2CCOCC2)n1 | 7.3%
Cc1ccc2[nH]c3c(c2c1)CCCC3NC(N)=O (stereo not given) | 13.4%
Cc1sc2ncnc(Nc3ccncc3)c2c1C | -13.3%
Nc1nnc(CCC(=O)c2ccccc2)s1 | 3.5%
O=C(NCc1ccccc1)c1ccccc1[N+](=O)[O-] | 9.7%

SMILES | displacement
C/C=N/N=C1/NC(=O)C(CC(=O)Nc2ccc(Cl)c(Cl)c2)S1 (stereo not given) | -3.9%
CC(C)(C)N1C(=O)NC(=O)C(=Cc2ccc(Br)s2)C1=O | 11.2%
COC(=O)C1=C(C)NC2=C(C(=O)c3ccccc32)C1c1ccc(-c2ccc(Cl)cc2)o1 (stereo not given) | 9.2%
Cc1ccc(-c2cc(C(=O)NC(C)C)c3ccccc3n2)s1 | -7.7%
COc1cc(C(=O)Nc2ccc([N+](=O)[O-])cc2Cl)cc(OC)c1OC | 2.3%
CCOc1ccc(/C=N\NC(=O)c2cncc(Br)c2)cc1 | 26.6%
CCOC(=O)C(C(=O)OCC)=C1Sc2ccccc2N1C | 13.4%
O=C(/C=C/c1ccccc1)N1CCN(CCN2C(=O)C3C4C=CC(C4)C3C2=O)CC1 (stereo not given) | -3.2%
CC(=O)NS(=O)(=O)c1ccc(NC(=O)Nc2ccc(Cl)cc2)cc1 | -8.7%
C=CCNC(=O)COc1ccc(C)cc1Br | -1.7%
CCOc1ccccc1NC(=O)COc1ccccc1 | 11.5%
COc1cc(/C=N/NC(=O)CCC2C(=O)NN=C2C)ccc1O (stereo not given) | -11.5%
CCOc1cc(C(=O)Nc2ncccc2Cl)cc(OCC)c1OCC | -0.9%
C=C(C)Cn1c(-c2ccccc2Br)n[nH]c1=S | -2.4%
CCOC(=O)c1ccccc1NC(=O)CN(c1ccc(OC)cc1)S(=O)(=O)c1ccccc1 | 1.1%
COc1ccc(N(CC(=O)Nc2ccc(Br)cc2)S(C)(=O)=O)c(OC)c1 | 1.2%
CC1(C)CC(CCNCc2ccccc2)(Cc2ccccc2)CCO1 (stereo not given) | 8.4%
O=C(Nc1ccc(-c2nc3ncccc3o2)cc1)c1cc2ccccc2oc1=O | -1%
CCOC(=O)C(CCCOc1cc(C)ccc1C)C(=O)OCC | -8%
COc1cccc(OC)c1C(=O)Nc1cccc(C(=O)c2ccccc2)c1 | 10.9%
CCOC(=O)c1sc(NC(=O)CCC2CCCC2)c(C(N)=O)c1C | -3%
C=CCN1C(=O)/C(=C\c2ccc(-c3ccc(OC)cc3[N+](=O)[O-])o2)C(=O)NC1=S | 18.3%

SMILES | displacement
Cc1ccc(C(C)C)c(OCC(=O)Nc2ncc(S(=O)(=O)c3ccc([N+](=O)[O-])cc3)s2)c1 | -1%
COc1ccccc1OCCCCN1CCCC1 | 16.9%
O=S(=O)(c1ccc(F)cc1)n1nnc2ccccc21 | 2.3%
Cc1ccc(OCc2nc(-c3cccnc3)no2)c(Br)c1 | 10.7%
CCOC(=O)C(C)Oc1ccc2c(C)c(C)c(=O)oc2c1 (stereo not given) | 10.1%
CCN1C(=O)/C(=C\c2cn(Cc3ccc(F)cc3)c3ccccc23)SC1=S | 5.1%
CC(=O)CC(=O)Nc1c(Cl)cccc1Cl | 4.1%
Cc1cccc(CC(C(=O)O)C(C)C(=O)O)c1 (stereo not given) | 4.5%
O=C(Nc1ccccc1OCC(F)(F)C(F)F)c1ccc(Cl)c([N+](=O)[O-])c1 | -15.3%
COc1ccc(CNC(=O)C(=O)NCc2ccc(C)cc2)cc1 | -15%
Cc1cccc(OCc2nc3cc(Cl)ccc3c(=O)o2)c1 | -9.6%
O=C1C(=O)N(c2cccc([N+](=O)[O-])c2)C(c2ccc(F)cc2)/C1=C(/O)c1ccccc1 (stereo not given) | 2.1%
S=C(Nc1ccc(Cl)cc1Cl)NC1CCCC1 | 0.3%
COc1ccc(N(CC(=O)Nc2ccc(Cl)cc2)S(=O)(=O)c2ccccc2)cc1Cl | 0.3%
COC(C(=O)N/N=C/c1cn(-c2ccccc2)nc1-c1ccccc1)c1ccccc1 (stereo not given) | -7.1%
COc1ccc(C(=O)N2CCN(Cc3ccc(Cl)cc3)CC2)cc1OC | 3.8%
Cc1ccc(C(=O)Nc2ccc(Cc3ccncc3)cc2)cc1C | 23.6%
O=C(c1ccc(Cl)cc1)N1CCN(c2ccc(C(F)(F)F)cc2[N+](=O)[O-])CC1 | -2.7%
O=C(Nc1ccc(Cl)c(Cl)c1)c1ccc2c(c1)OCCO2 | 10.2%
O=C(/C=C(\Nc1ccccc1)c1ccccc1)c1cccc2ccccc12 | 9.1%
CCOc1cccc(C(=O)Nc2sc(C)cc2C(=O)OC)c1 | 18.7%
CCCc1cc(C(=O)OC)c(NC(=O)c2cccc(OC(C)C)c2)s1 | -3.4%
